Measured values as given in US20250188179A1 (ADAGENE PTE, published 2025).
Numbering of substitutions follows the chain as printed. Numbers in names are those of the source. Where “and” joins values, the source holds several entries; their conditions need not be identical. Identical values can stand only once.

B1: TY22596 (antibody, human IgG4 S228P, kappa)
heavy: EVQLVESGGGLVQPGGSLRLSCAASGFSLSTGGVGVGWIRQAPGKGLEWLALIDWADDKYYSPSLKSRLTISRDNSKNTLYLQLNSLRAEDTAVYYCARGGSDTVIGDWFAYWGQGTLVTVSSASTKGPSVFPLAPCSRSTSESTAALGCLVKDYFPEPVTVSWNSGALTSGVHTFPAVLQSSGLYSLSSVVTVPSSSLGTKTYTCNVDHKPSNTKVDKRV[in this place human IgG4 Fc with S228P (EU numbers)]
light: EVGSYYHDYDDCRVLPRRCFNSGRSAGGGGTPLGLAGSGGSDIQLTQSPSSLSASVGDRVTITCRASQSIGSYLAWYQQKPGKAPKLLIYDASNLETGVPSRFSGSGSGTDFTLTISSLQPEDFATYYCQQGYYLWTFGQGTKVEIKRTVAAPSVFIFPPSDEQLKSGTASVVCLLNNFYPREAKVQWKVDNALQSGNSQESVTEQDSKDSTYSLSSTLTLSKADYEKHKVYACEVTHQGLSSPVTKSFNRGEC
notes: Masked, uncleaved; hIgG4
B2: TY22591 (antibody, human IgG4 S228P, kappa)
heavy: B1 heavy
light: EVGSYSSTHAHCHHSPANCISSGRSAGGGGTPLGLAGSGGSDIQLTQSPSSLSASVGDRVTITCRASQSIGSYLAWYQQKPGKAPKLLIYDASNLETGVPSRFSGSGSGTDFTLTISSLQPEDFATYYCQQGYYLWTFGQGTKVEIKRTVAAPSVFIFPPSDEQLKSGTASVVCLLNNFYPREAKVQWKVDNALQSGNSQESVTEQDSKDSTYSLSSTLTLSKADYEKHKVYACEVTHQGLSSPVTKSFNRGEC
notes: Masked, uncleaved; hIgG4
B3: TY22598 (antibody, human IgG4 S228P, kappa)
heavy: B1 heavy
light: EVGSYSNNFASCLWRHRSCADSGRSAGGGGTPLGLAGSGGSDIQLTQSPSSLSASVGDRVTITCRASQSIGSYLAWYQQKPGKAPKLLIYDASNLETGVPSRFSGSGSGTDFTLTISSLQPEDFATYYCQQGYYLWTFGQGTKVEIKRTVAAPSVFIFPPSDEQLKSGTASVVCLLNNFYPREAKVQWKVDNALQSGNSQESVTEQDSKDSTYSLSSTLTLSKADYEKHKVYACEVTHQGLSSPVTKSFNRGEC
notes: Masked, uncleaved; hIgG4
B4: TY22595 (antibody, human IgG4 S228P, kappa)
heavy: B1 heavy
light: EVGSYNDYNYHCKWRPSRCHNSGRSAGGGGTPLGLAGSGGSDIQLTQSPSSLSASVGDRVTITCRASQSIGSYLAWYQQKPGKAPKLLIYDASNLETGVPSRFSGSGSGTDFTLTISSLQPEDFATYYCQQGYYLWTFGQGTKVEIKRTVAAPSVFIFPPSDEQLKSGTASVVCLLNNFYPREAKVQWKVDNALQSGNSQESVTEQDSKDSTYSLSSTLTLSKADYEKHKVYACEVTHQGLSSPVTKSFNRGEC
notes: Masked, uncleaved; hIgG4
B5: TY22599 (antibody, human IgG4 S228P, kappa)
heavy: B1 heavy
light: B1 light with Y6T, H7D, D8N, D11Y, R13P, V14R, P16R, R18K, F20Y, N21H
notes: Masked, uncleaved; hIgG4
B6: TY22594 (antibody, human IgG4 S228P, kappa)
heavy: B1 heavy
light: B1 light with Y6D, H7T, D11F, R13P, V14I, P16R, R17H, F20D, N21S
notes: Masked, uncleaved; hIgG4
B7: TY25154 (antibody, human IgG4 S228P, kappa)
heavy: B1 heavy
light: EVGSYPTDLDACADAPNHCHFSGGGPLGLAGGSDIQLTQSPSSLSASVGDRVTITCRASQSIGSYLAWYQQKPGKAPKLLIYDASNLETGVPSRFSGSGSGTDFTLTISSLQPEDFATYYCQQGYYLWTFGQGTKVEIKRTVAAPSVFIFPPSDEQLKSGTASVVCLLNNFYPREAKVQWKVDNALQSGNSQESVTEQDSKDSTYSLSSTLTLSKADYEKHKVYACEVTHQGLSSPVTKSFNRGEC
notes: Masked, uncleaved; hIgG4
B8: TY25153 (antibody, human IgG4 S228P, kappa)
heavy: B1 heavy
light: EVGSYPTDLDACADAPNHCHFGGGPLGLAGGSDIQLTQSPSSLSASVGDRVTITCRASQSIGSYLAWYQQKPGKAPKLLIYDASNLETGVPSRFSGSGSGTDFTLTISSLQPEDFATYYCQQGYYLWTFGQGTKVEIKRTVAAPSVFIFPPSDEQLKSGTASVVCLLNNFYPREAKVQWKVDNALQSGNSQESVTEQDSKDSTYSLSSTLTLSKADYEKHKVYACEVTHQGLSSPVTKSFNRGEC
notes: Masked, uncleaved; hIgG4
B9: TY22586 (antibody, human IgG4 S228P, kappa)
heavy: B1 heavy
light: EVGSYPTDLDACADAPNHCHFSGRSAGGGGTPLGLAGSGGSDIQLTQSPSSLSASVGDRVTITCRASQSIGSYLAWYQQKPGKAPKLLIYDASNLETGVPSRFSGSGSGTDFTLTISSLQPEDFATYYCQQGYYLWTFGQGTKVEIKRTVAAPSVFIFPPSDEQLKSGTASVVCLLNNFYPREAKVQWKVDNALQSGNSQESVTEQDSKDSTYSLSSTLTLSKADYEKHKVYACEVTHQGLSSPVTKSFNRGEC
notes: Masked, uncleaved; hIgG4
B10: TY25155 (antibody, human IgG4 S228P, kappa)
heavy: B1 heavy
light: B7 light with G24R
notes: Masked, uncleaved; hIgG4
B11: TY23573 (antibody, human IgG1, kappa)
heavy: EVQLVESGGGLVQPGGSLRLSCAASGFSLSTGGVGVGWIRQAPGKGLEWLALIDWADDKYYSPSLKSRLTISRDNSKNTLYLQLNSLRAEDTAVYYCARGGSDTVIGDWFAYWGQGTLVTVSS[in this place human IgG1 constant region]
light: EVGSYTDNYDYCPRLRRKCYHPLGLAGSGGSDIQLTQSPSSLSASVGDRVTITCRASQSIGSYLAWYQQKPGKAPKLLIYDASNLETGVPSRFSGSGSGTDFTLTISSLQPEDFATYYCQQGYYLWTFGQGTKVEIKRTVAAPSVFIFPPSDEQLKSGTASVVCLLNNFYPREAKVQWKVDNALQSGNSQESVTEQDSKDSTYSLSSTLTLSKADYEKHKVYACEVTHQGLSSPVTKSFNRGEC
notes: Masked, uncleaved; hIgG1
B12: TY25370 (antibody, human IgG1, kappa)
heavy: EVQLVESGGGLVQPGGSLRLSCAASGFSLSTGGVGVGWIRQAPGKGLEWLALIDWADDKYYSPSLKSRLTISRDNSKNTLYLQLNSLRAEDTAVYYCARGGSDTVIGDWFAYWGQGTLVTVSS[in this place human IgG1 constant region with changes]
light: EVGSYNDYNYHCKWRPSRCHNPLGLAGSGGSDIQLTQSPSSLSASVGDRVTITCRASQSIGSYLAWYQQKPGKAPKLLIYDASNLETGVPSRFSGSGSGTDFTLTISSLQPEDFATYYCQQGYYLWTFGQGTKVEIKRTVAAPSVFIFPPSDEQLKSGTASVVCLLNNFYPREAKVQWKVDNALQSGNSQESVTEQDSKDSTYSLSSTLTLSKADYEKHKVYACEVTHQGLSSPVTKSFNRGEC
notes: Masked, uncleaved; hIgG1 S267E/L328F
B13: TY25371 (antibody, human IgG1, kappa)
heavy: EVQLVESGGGLVQPGGSLRLSCAASGFSLSTGGVGVGWIRQAPGKGLEWLALIDWADDKYYSPSLKSRLTISRDNSKNTLYLQLNSLRAEDTAVYYCARGGSDTVIGDWFAYWGQGTLVTVSS[in this place human IgG1 constant region with changes]
light: B11 light
notes: as for B12

target: T1, full-length human CD137 with C-terminal 3xMyc tag displayed on yeast cells (human, UniProt Q07011 24-255); assay: FACS titration on yeast displaying full-length hCD137-3xMyc, no protease; data batch 1
T1 construct: whole, on cells; not used; also called hCD137; not shown: C-terminal 3xMyc tag
T1 sequence (Q07011 24-255): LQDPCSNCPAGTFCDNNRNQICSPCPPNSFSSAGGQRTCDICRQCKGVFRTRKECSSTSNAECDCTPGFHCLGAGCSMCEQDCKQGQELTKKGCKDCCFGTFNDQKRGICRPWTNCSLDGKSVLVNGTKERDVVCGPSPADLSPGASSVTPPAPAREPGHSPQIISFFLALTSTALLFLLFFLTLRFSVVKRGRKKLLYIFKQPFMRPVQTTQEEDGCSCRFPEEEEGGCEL

| Kd [nM] | Binder |
| --- | --- |
| 5.86 | B1 |
| 10.8 | B2 |
| 8.61 | B3 |
| 107 | B4 |
| 98.1 | B5 |
| 23.6 | B6 |

target: T1, full-length human CD137 with C-terminal …; assay: FACS titration on yeast displaying full-length hCD137-3xMyc, no protease; data batch 3

| Kd [nM] | Binder |
| --- | --- |
| 22.2 | B7 |
| 21.4 | B8 |
| 128 | B9 |
| 44 | B5 |
| 402 | B10 |
| 99.3 | B11 |

target: T1, full-length human CD137 with C-terminal …; assay: KD divided by KD of parental TY21242; FACS on yeast hCD137; data batch 1

| Masking efficiency [fold] | Binder |
| --- | --- |
| 21 | B1 |
| 38 | B2 |
| 31 | B3 |
| 379 | B4 |
| 348 | B5 |
| 84 | B6 |

target: T1, full-length human CD137 with C-terminal …; assay: KD divided by KD of parental TY21242; FACS on yeast hCD137; data batch 2

| Masking efficiency [fold] | Binder |
| --- | --- |
| 141 | B4 |
| 246 | B5 |
| 820 | B11 |

target: T1, full-length human CD137 with C-terminal …; assay: FACS titration on yeast displaying full-length hCD137-3xMyc, no protease; data batch 4

| Kd | Binder |
| --- | --- |
| 42.2 nM | B12 |
| 183 nM and 182 nM | B10 |
| 61.9 nM | B13 |

target: T1, full-length human CD137 with C-terminal …; assay: FACS titration on yeast displaying full-length hCD137-3xMyc, no protease; data batch 2

| Kd [nM] | Binder |
| --- | --- |
| 41.2 | B4 |
| 71.7 | B5 |
| 239 | B11 |

target: T1, full-length human CD137 with C-terminal …; assay: KD divided by KD of parental TY21242; FACS on yeast hCD137; data batch 3

| Masking efficiency [fold] | Binder |
| --- | --- |
| 62 | B7 |
| 60 | B8 |
| 361 | B9 |
| 124 | B5 |
| 1130 | B10 |
| 279 | B11 |

target: T1, full-length human CD137 with C-terminal …; assay: KD divided by KD of parental antibody (TY21242 or TY23310); FACS on yeast hCD137; data batch 4

| Masking efficiency [fold] | Binder |
| --- | --- |
| 240 | B12 |
| 351 | B13 |
